Reference: paper PMC5700166
The list shows a part of the results, in another mix than the full data. The list includes weakly bound sequences.

Legend:
Assay in all cases: protein-binding microarray (PBM)
Details in all cases: PBM: ~300 nM protein, 6 mM HEPES pH 7.8, 80 mM KCl, 0.5 mM EDTA, 0.5 mM EGTA, 6% glycerol, 35 ng/ul poly-dIdC, 1% milk, 1 h, room temperature; Ap Aiptasia and Nv Nematostella (sea anemones) / Co Capsaspora / Aq Amphimedon (sponge) / Dm Drosophila / Hu human; RHD is the Rel homology domain; high values mean tight binding; most listed sequences are background and not binding sites; double strand, one strand shown
GST-Ap-NF-kB RHD = target: T1, GST-Ap-NF-kB RHD (UniProt A0A913YAJ5)
T1 sequence: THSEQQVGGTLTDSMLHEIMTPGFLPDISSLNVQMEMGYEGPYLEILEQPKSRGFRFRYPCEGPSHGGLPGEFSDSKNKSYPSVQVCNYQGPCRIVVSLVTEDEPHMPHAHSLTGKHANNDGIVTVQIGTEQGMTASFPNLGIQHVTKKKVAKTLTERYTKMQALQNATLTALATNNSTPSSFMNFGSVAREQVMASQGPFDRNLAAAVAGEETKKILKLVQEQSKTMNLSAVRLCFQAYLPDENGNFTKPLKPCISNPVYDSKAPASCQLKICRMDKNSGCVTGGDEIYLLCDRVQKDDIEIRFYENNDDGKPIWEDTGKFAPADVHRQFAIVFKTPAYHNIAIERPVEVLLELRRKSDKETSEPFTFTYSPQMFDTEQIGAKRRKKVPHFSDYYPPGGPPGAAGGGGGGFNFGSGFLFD

[1] = target: T2, GST-Nv-NF-kB (Cys allele) (UniProt E5G601)
T2 sequence: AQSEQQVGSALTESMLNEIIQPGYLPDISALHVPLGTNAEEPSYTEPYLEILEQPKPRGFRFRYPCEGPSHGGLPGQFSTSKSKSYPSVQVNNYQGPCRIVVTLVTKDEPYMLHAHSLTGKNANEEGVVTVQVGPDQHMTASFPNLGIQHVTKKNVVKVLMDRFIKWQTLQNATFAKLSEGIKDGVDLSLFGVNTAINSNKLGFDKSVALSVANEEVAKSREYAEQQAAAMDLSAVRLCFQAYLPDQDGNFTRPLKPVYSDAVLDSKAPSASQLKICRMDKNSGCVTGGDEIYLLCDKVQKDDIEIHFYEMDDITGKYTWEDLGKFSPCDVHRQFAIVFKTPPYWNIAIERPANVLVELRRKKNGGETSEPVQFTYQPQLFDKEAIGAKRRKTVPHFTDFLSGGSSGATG

GST-Co-NF-kB = target: T3, GST-Co-NF-kB (UniProt F1ARL5)
T3 sequence: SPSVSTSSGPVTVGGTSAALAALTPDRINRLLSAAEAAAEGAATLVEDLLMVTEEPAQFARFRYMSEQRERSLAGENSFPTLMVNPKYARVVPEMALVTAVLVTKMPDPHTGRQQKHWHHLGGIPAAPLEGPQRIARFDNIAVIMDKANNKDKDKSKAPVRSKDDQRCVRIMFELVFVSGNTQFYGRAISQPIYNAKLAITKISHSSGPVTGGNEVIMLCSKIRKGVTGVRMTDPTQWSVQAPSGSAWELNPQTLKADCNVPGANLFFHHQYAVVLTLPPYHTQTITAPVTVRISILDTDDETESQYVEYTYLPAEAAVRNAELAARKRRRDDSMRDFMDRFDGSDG

GST-Dm-Relish = target: T4, GST-Dm-Relish (UniProt Q94527)
T4 sequence: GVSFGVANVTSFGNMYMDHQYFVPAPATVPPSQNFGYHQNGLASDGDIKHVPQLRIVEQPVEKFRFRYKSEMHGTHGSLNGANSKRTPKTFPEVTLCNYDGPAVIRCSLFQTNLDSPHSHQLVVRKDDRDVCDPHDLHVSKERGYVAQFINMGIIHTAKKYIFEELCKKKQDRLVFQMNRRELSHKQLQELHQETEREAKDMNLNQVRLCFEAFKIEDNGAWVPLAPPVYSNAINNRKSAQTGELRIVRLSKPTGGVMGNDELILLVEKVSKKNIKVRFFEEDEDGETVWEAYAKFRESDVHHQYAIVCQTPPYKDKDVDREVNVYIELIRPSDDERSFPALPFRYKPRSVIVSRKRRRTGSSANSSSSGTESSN

GST-Aq-NF-kB = target: T5, GST-Aq-NF-kB (UniProt A9Y5G7)
T5 sequence: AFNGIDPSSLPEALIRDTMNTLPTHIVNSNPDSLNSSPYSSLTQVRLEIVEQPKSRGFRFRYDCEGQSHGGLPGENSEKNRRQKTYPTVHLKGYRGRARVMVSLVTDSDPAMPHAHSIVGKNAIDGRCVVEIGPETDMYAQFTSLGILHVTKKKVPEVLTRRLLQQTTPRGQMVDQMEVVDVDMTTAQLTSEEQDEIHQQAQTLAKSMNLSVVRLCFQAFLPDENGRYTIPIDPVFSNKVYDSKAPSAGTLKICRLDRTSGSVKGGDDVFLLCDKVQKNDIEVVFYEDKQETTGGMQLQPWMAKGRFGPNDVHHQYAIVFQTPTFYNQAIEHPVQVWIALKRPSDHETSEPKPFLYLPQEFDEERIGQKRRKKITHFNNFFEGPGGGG

| Sequence | binding signal (GST-Ap-NF-kB RHD) | binding signal [1] | binding signal (GST-Co-NF-kB) | binding signal (GST-Dm-Relish) | binding signal (GST-Aq-NF-kB) |
| --- | --- | --- | --- | --- | --- |
| CCGATTAACATCAACCTCGATTGTGATGTTAATCGGGTCTTGATTCGCTTGACGCTGCTG | -0.371 z-score | -0.257 z-score | 0.293 z-score | -0.226 z-score | -0.819 z-score |
| CCGATTAACATCAGGGATCCCCCTGATGTTAATCGGGTCTTGATTCGCTTGACGCTGCTG | 12 z-score | 10.2 z-score | 5.15 z-score | 11.1 z-score | 10.3 z-score |
| CCGATTAACATCAGGTCCAAGGTTGATGTTAATCGGGTCTTGATTCGCTTGACGCTGCTG | -0.214 z-score | -0.535 z-score | -0.446 z-score | -0.499 z-score | -0.389 z-score |
| CCGATTAACATCACTCTGGCTCTTGATGTTAATCGGGTCTTGATTCGCTTGACGCTGCTG | -0.207 z-score | -0.122 z-score | -0.29 z-score | -0.562 z-score | -0.441 z-score |
| CCGATTAACATCATGGCATTGCGTGATGTTAATCGGGTCTTGATTCGCTTGACGCTGCTG | -0.8 z-score | -0.794 z-score | -0.385 z-score | -0.886 z-score | -0.456 z-score |
| CCGATTAACATCAGGGCTGGACATGATGTTAATCGGGTCTTGATTCGCTTGACGCTGCTG | -0.121 z-score | -0.257 z-score | -0.497 z-score | -0.795 z-score | -0.331 z-score |
| CCGATTAACATCACGGAAACCAGTGATGTTAATCGGGTCTTGATTCGCTTGACGCTGCTG | -0.574 z-score | 0.0824 z-score | 0.356 z-score | 0.249 z-score | -0.397 z-score |
| CCGATTAACATCAAGGAAAATTCTGATGTTAATCGGGTCTTGATTCGCTTGACGCTGCTG | -0.0353 z-score | -0.0354 z-score | 0.817 z-score | 0.286 z-score | 0.92 z-score |
| CCGATTAACATCATTCTCTTAAGTGATGTTAATCGGGTCTTGATTCGCTTGACGCTGCTG | -0.552 z-score | -0.453 z-score | -0.259 z-score | -0.309 z-score | -0.336 z-score |
| CCGATTAACATCACCGTTATTATTGATGTTAATCGGGTCTTGATTCGCTTGACGCTGCTG | 0.411 z-score | -0.307 z-score | 0.725 z-score | 0.794 z-score | 0.371 z-score |
| CCGATTAACATCACTATTGTACATGATGTTAATCGGGTCTTGATTCGCTTGACGCTGCTG | -0.282 z-score | -0.803 z-score | 0.378 z-score | 1.29 z-score | -0.234 z-score |
| CCGATTAACATCAAGTATACACTTGATGTTAATCGGGTCTTGATTCGCTTGACGCTGCTG | -1.7 z-score | -0.118 z-score | -1.41 z-score | -0.173 z-score | -0.532 z-score |
| CCGATTAACATCAGCGCAAGATATGATGTTAATCGGGTCTTGATTCGCTTGACGCTGCTG | -0.534 z-score | -0.378 z-score | -0.426 z-score | -0.315 z-score | -0.185 z-score |
| CCGATTAACATCAATCGGTCTACTGATGTTAATCGGGTCTTGATTCGCTTGACGCTGCTG | -0.227 z-score | -0.665 z-score | 0.0423 z-score | -1.19 z-score | -0.487 z-score |
| CCGATTAACATCATGGTGCTTAATGATGTTAATCGGGTCTTGATTCGCTTGACGCTGCTG | -0.221 z-score | 0.302 z-score | -0.886 z-score | 0.0464 z-score | -0.184 z-score |
| CCGATTAACATCACTACACGGCGTGATGTTAATCGGGTCTTGATTCGCTTGACGCTGCTG | 0.121 z-score | -0.799 z-score | 0.0749 z-score | 0.179 z-score | -0.262 z-score |
| CCGATTAACATCATCGATTCGTATGATGTTAATCGGGTCTTGATTCGCTTGACGCTGCTG | -1.15 z-score | -0.249 z-score | -0.571 z-score | -0.913 z-score | -0.56 z-score |
| CCGATTAACATCACGCTAATGACTGATGTTAATCGGGTCTTGATTCGCTTGACGCTGCTG | 0.262 z-score | -0.444 z-score | -0.248 z-score | 0.0568 z-score | -0.47 z-score |
| CCGATTAACATCAAAGTAAGATCTGATGTTAATCGGGTCTTGATTCGCTTGACGCTGCTG | -0.601 z-score | 0.18 z-score | 0.0823 z-score | -0.584 z-score | -0.607 z-score |
| CCGATTAACATCAGGAATACACATGATGTTAATCGGGTCTTGATTCGCTTGACGCTGCTG | 0.00426 z-score | -0.584 z-score | -0.0779 z-score | 0.919 z-score | -0.0299 z-score |
| CCGATTAACATCAAGTGCCACGTTGATGTTAATCGGGTCTTGATTCGCTTGACGCTGCTG | -0.414 z-score | 0.126 z-score | -0.412 z-score | -0.398 z-score | -0.519 z-score |
| CCGATTAACATCACCGGAGATCTTGATGTTAATCGGGTCTTGATTCGCTTGACGCTGCTG | 0.364 z-score | -0.553 z-score | 0.185 z-score | 0.311 z-score | 0.241 z-score |
| CCGATTAACATCACGGCGTTTCCTGATGTTAATCGGGTCTTGATTCGCTTGACGCTGCTG | -0.117 z-score | -0.233 z-score | -0.512 z-score | 0.0703 z-score | 0.675 z-score |
| CCGATTAACATCATCCCTGTGGCTGATGTTAATCGGGTCTTGATTCGCTTGACGCTGCTG | 0.957 z-score | -0.113 z-score | -0.0268 z-score | -0.364 z-score | 0.406 z-score |
| CCGATTAACATCAGATGGCGACTTGATGTTAATCGGGTCTTGATTCGCTTGACGCTGCTG | -0.526 z-score | -0.787 z-score | -0.567 z-score | -0.421 z-score | -0.426 z-score |
| CCGATTAACATCACTCATATGCTTGATGTTAATCGGGTCTTGATTCGCTTGACGCTGCTG | -0.402 z-score | -0.00753 z-score | -0.627 z-score | -0.642 z-score | -0.507 z-score |
| CCGATTAACATCAGAAATTCCGATGATGTTAATCGGGTCTTGATTCGCTTGACGCTGCTG | -0.392 z-score | 0.00391 z-score | -0.28 z-score | 0.0579 z-score | 0.552 z-score |
| CCGATTAACATCAGCCTCAAGTGTGATGTTAATCGGGTCTTGATTCGCTTGACGCTGCTG | -0.23 z-score | -0.522 z-score | 0.0566 z-score | -0.357 z-score | -0.541 z-score |
